The campaign covered roughly 360,000 compounds. About 7,500 (2.1%) were called active. The inconclusive results got no clear call from the source; some entries with a clear call stand among them for comparison. Calls follow the shape of the dose curve; as a rule, active = well fitted cell-killing curve with a large enough effect; inconclusive = small, poorly fitted or top-dose-only effect, or effect the other way, or another doubt; inactive = no such curve, though single readings can be large or run the other way. Potencies of inconclusive entries are left out as doubtful fits.
Experiment: qHTS for induction of synthetic lethality in tumor cells producing 2HG: qHTS for the HT-1080-IDH1KD cell line;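 as to activity, negative = toxicity: 0% = DMSO wells and -100% = cell-free medium wells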
Conditions: HT-1080 IDH1 knockdown viability, ATP luminescence, 48 h; activity, negative = toxicity: at 46.1 µM (top of the series) unless noted
Procedure, shortened: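 CellTiter-Glo luminescence after 48 h compound exposure at 37 degrees C of IDH1-knockdown HT-1080 cells in 5% FBS RPMI. %Activity scaled between DMSO wells and cell-free media wells, with curves fitted and assigned curve classes.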
Potency is read from the fitted curve at half-maximal effect; tags tell the direction and shape of the fitted curve.

Row | Compound | Potency | activity, negative = toxicity
1 | COC(=O)c1ccc2nc(-c3ccc(OC)c(OC)c3)c(Cc3cccc(F)c3)n2c1 | inconclusive [cytotoxic, single point] | –
2 | O=C(NCCN1CCN(c2cccc(Cl)c2)CC1)c1ccc(CSc2nc3ccncc3[nH]2)cc1 | inconclusive [cytotoxic, single point] | –
3 | CCOC(=O)c1ccc(S(=O)(=O)Nc2cc(C(=O)O)ccc2Cl)cc1 | – | inactive: 20.8%
4 | COc1ccc(-c2cc(C)no2)cc1S(=O)(=O)Nc1ccccc1 | active: 16.4 µM | –
5 | COc1ccc(/C(C)=N\NC(=O)CNC(=O)C(c2ccccc2)c2ccccc2)cc1OC | inconclusive [cytotoxic, single point] | –
6 | CSc1ncc(Cl)c(C(=O)Nc2ccc(S(=O)(=O)Nc3nccc(C)n3)cc2)n1 | inconclusive [cytotoxic, single point] | –
7 | CCCC1=Nc2cc(C(=O)NCc3ccco3)ccc2Sc2ccccc21 | inconclusive [cytotoxic, full curve] | –
8 | O=S(=O)(NCc1ccncc1)c1ccc(F)c(F)c1 | – | inactive: -16.6%
9 | O=[N+]([O-])c1ccc(NNC(=S)Nc2ccccc2)cc1 | inconclusive [cytotoxic, partial curve] | –
10 | COc1c(Cl)cnn(-c2ccc(Cl)c(Cl)c2)c1=O | inconclusive [cytotoxic, single point] | –
11 | Cn1cc(CN(CCCN2CCOCC2)C(=S)Nc2cccc(Cl)c2)c2ccccc21 | inconclusive [cytotoxic, single point] | –
12 | CCC(C(=O)Nc1cccc(S(=O)(=O)N(C)c2ccccc2)c1)c1ccccc1 (stereo not drawn) | – | inconclusive: -30.5% [cytotoxic]
13 | COc1ccc(C2(c3ccc(OC)cc3)NC(=O)N(CC(=O)Nc3cc(C)ccc3OC)C2=O)cc1 | inconclusive [cytotoxic, partial curve] | –
14 | Cc1nc(C(F)(F)F)c(C(=O)N/N=C(\N)c2ccccn2)s1 | active: 16.4 µM | –
15 | O=C(Cn1ncc(Cl)c(Cl)c1=O)N1CCc2ccccc21 | active: 2.91 µM | –
16 | CCN(CC)S(=O)(=O)c1ccc2[nH]c(=O)cc(C(=O)Nc3ccc(C)cc3)c2c1 | inconclusive [cytotoxic, single point] | –
17 | O=C1/C(=N\S(=O)(=O)c2cccs2)C([n+]2ccc(CCCc3ccccc3)cc2)=C([O-])c2ccccc21 | inconclusive [cytotoxic, single point] | –
18 | COc1ccc(CC(N)c2csc(NC(=O)Nc3ccccc3Oc3ccccc3)n2)cc1 (stereo not drawn) | inconclusive [cytotoxic, single point] | –
19 | COc1ccc(OC)c(-c2cc(C3CCN(c4ncccc4[N+](=O)[O-])CC3)[nH]n2)c1 | inconclusive [cytotoxic, single point] | –
20 | COc1ccc(S(=O)(=O)N2CCCCCC2)cc1C(=O)N(C)Cc1ccc(C)cc1 | – | inactive: -13.2%
21 | CCN1/C(=C/c2ccc3cc(C)ccc3[n+]2CC)Sc2ccc3sccc3c21 | active: 0.92 µM | –
22 | FC(F)(F)c1cccc(NC(=S)Nc2cccc(NC(=S)Nc3cccc(C(F)(F)F)c3)n2)c1 | active: 23.1 µM | –
23 | C[C@@H]1CCCCO[C@H](CN(C)C(=O)Nc2ccccc2)[C@@H](C)CN([C@H](C)CO)C(=O)c2cc(NS(=O)(=O)c3cn(C)cn3)ccc2O1 | – | inactive: 5.29%
24 | CCn1c(Cc2cccc3ccccc23)nnc1SCC(=O)Nc1nccs1 | – | inactive: 3.05% [at 9.24 µM]
25 | O=C1NC(Cc2ccccc2)c2nc3ccc(Cl)cc3c(=O)n2-c2cc3ccccc3cc21 (stereo not drawn) | inconclusive [cytotoxic, single point] | –

Row | Compound | Potency | activity, negative = toxicity
26 | CCN1CCN(CCOc2cccc(Oc3ccccc3)c2)CC1 | – | inactive: -4.51%
27 | O=C(Oc1ccc2ccccc2c1Cl)N1CCCC1 | – | inconclusive: -31.9% [cytotoxic]
28 | CCn1c(SCC(=O)c2c(N)n(C3CC3)c(=O)[nH]c2=O)nc2cc(S(N)(=O)=O)ccc21 | – | inactive: 12.9%
29 | COc1ccc(-c2coc3c(C(=O)NCC4CC4)cccc23)c(C)c1 | inconclusive [cytotoxic, single point] | –
30 | O=C1NC[C@@H](CCCCN2C[C@H](Cc3ccc(O)cc3)N(CCC3CCCCC3)C(=O)C2=O)N(CC2CCCCC2)C1=O | inconclusive [cytotoxic, single point] | –
31 | CC(C(=O)Nc1nccs1)c1ccc([N+](=O)[O-])cc1 (stereo not drawn) | – | inactive: -2.13%
32 | CN(C)S(=O)(=O)c1cccc(NC(=O)CSc2nc3ccccc3[nH]2)c1 | inconclusive [cytotoxic, single point] | –
33 | COc1ccc(-c2noc(CCC(=O)N3CCN(Cc4ccccc4)CC3)n2)cc1 | – | inactive: 0.641%
34 | O=C(/C=C/c1ccco1)NC(=S)Nc1ccc(N2CCCC2)cc1 | inconclusive [cytotoxic, partial curve] | –
35 | COc1cccc2c(SCC(=O)N/N=C/c3ccc(O)cc3O)cc(C)nc12 | inconclusive [cytotoxic, partial curve] | –
36 | Cn1nc(-c2ccccc2)nc1-c1ccccc1 | – | inactive: -3.45%
37 | CCOC(=O)c1ccccc1OCc1cc(/C=N/NC(=O)c2cccnc2)ccc1OC | inconclusive [cytotoxic, full curve, poor fit] | –
38 | COc1cc(CN2CCc3ccccc3C2)ccc1O | inconclusive [cytotoxic, partial curve] | –
39 | O=C(O)Cn1cccc1C(=O)c1ccccc1 | inconclusive [cytotoxic, single point] | –
40 | Cc1ccc(CNC(=O)c2ccc(C#CC(C)(C)O)s2)cc1 | – | inactive: 12.9%
41 | CCc1nnc(NC(=O)CSc2ccc(-c3nc4ccccc4[nH]3)cn2)s1 | – | inactive: -20.7%
42 | Cc1cc(Br)ccc1NC(=O)CN(C)C(=O)C1CCN(c2ncnc3sc(C)c(C)c23)CC1 | inconclusive [cytotoxic, single point] | –
43 | COc1cc(C(=O)NC(=S)N(CCc2ccccc2)CCc2ccccc2)cc(OC)c1OC | inconclusive [cytotoxic, single point] | –
44 | O=S(=O)(c1ccc(F)cc1)N(CCO)CC(O)Cn1c2ccccc2c2ccccc21 (stereo not drawn) | active: 17.8 µM | –
45 | CC(=O)c1c(C)[nH]c(C(=O)C(C)Sc2nnc(NC3CC3)s2)c1C (stereo not drawn) | – | inactive: -27.2%
46 | Cc1ccc(S(=O)(=O)NNC(=S)NCC2CCCO2)cc1 (stereo not drawn) | – | inactive: -8.68%
47 | CN1CCN(C(=O)c2ccc(-c3cccs3)s2)CC1 | inconclusive [rising, partial curve] | –
48 | CCCC(=O)Nc1ccc2oc(-c3ccc(OC)c(Br)c3)nc2c1 | inconclusive [cytotoxic, single point] | –
49 | OC(COc1ccccc1)CN(Cc1ccccc1)CC(O)COc1ccccc1 (stereo not drawn) | inconclusive [cytotoxic, single point] | –
50 | CS(=O)CC(O)(c1ccc(F)cc1)C1CC1 (stereo not drawn) | – | inactive: 1.91%

Row | Compound | Potency | activity, negative = toxicity
51 | CSCC(C)N1CCC(n2nccc2NC(=O)CCCc2ccccc2)CC1 (stereo not drawn) | – | inactive: 1.63%
52 | CC(=O)c1sc(NC(=O)C2CCN(C(=O)c3ccccc3C)CC2)nc1-c1ccccc1 | – | inactive: -9.35%
53 | O=Nc1c(O)c2ccccc2c2ccccc12 | active: 2.91 µM | –
54 | COc1cc(C(=O)N2CCN(c3ccc(C)cc3C)CC2)cc(OC)c1OC | active: 5.8 µM | –
55 | O=C(Nc1ccc(N2CCCCC2)cc1)c1ccccn1 | active: 10.3 µM | –
56 | C(=N\NC1=Nc2cccc3cccc1c23)/c1ccccn1 | inconclusive [cytotoxic, single point] | –
57 | CCC(=O)Nc1cccc(NC(=S)NC(=O)c2ccc(Cl)cc2)c1 | – | inactive: -2.55%
58 | Cc1ccc(-c2nnc(CCC(=O)NCC3C4CC5CC(C4)CC3C5)o2)s1 (stereo not drawn) | – | inactive: 3.36%
59 | Cc1ccccc1-c1cc(-c2ccccc2O)on1 | inconclusive [cytotoxic, single point] | –
60 | COc1ccc(N=Cc2c[nH][nH]c2=O)cc1 | inconclusive [cytotoxic, partial curve] | –
61 | COc1ccc(NS(=O)(=O)c2ccc3nc(COc4cccc5ccccc45)[nH]c3c2)cc1 | inconclusive [cytotoxic, single point] | –
62 | CNC(=S)N/N=C/c1cc(Br)cc(Br)c1O | active: 23.1 µM | –
63 | CCOC(=O)c1sc(NC(=O)CN2C(=O)NC3(CC(C)CC(C)(C)C3)C2=O)cc1C (stereo not drawn) | inconclusive [cytotoxic, single point] | –
64 | CN1CCN(c2ccc(Nc3ccnc4cc(Cl)ccc34)cc2)CC1 | active: 20.6 µM | –
65 | Cc1cccc(CS(=O)(=O)c2ncc(Cl)c(C(=O)Nc3nnc(C(C)C)s3)n2)c1 | active: 7.31 µM | –
66 | CCc1cc(SC#N)cc(CC)c1NC(=O)CCl | active: 20.6 µM | –
67 | COc1cccc(/C=C/C(=O)OCC(=O)Nc2nnc(-c3ccccc3)o2)c1 | inconclusive [cytotoxic, single point] | –
68 | N#Cc1c(N)nc2c3c(sc(=N)c2c1N)NC(=O)CC3c1c(F)cccc1Cl (stereo not drawn) | – | inactive: -12.9%
69 | O=C(N/N=C/c1ccc(F)cc1)c1ccc(Br)cc1 | inconclusive [cytotoxic, single point] | –
70 | COc1ccc2c(c1)CCc1c(C(=O)N3CC4(C)CC3CC(C)(C)C4)noc1-2 (stereo not drawn) | inconclusive [cytotoxic, single point] | –
71 | COc1ccc2ccccc2c1CNC(C)CCc1ccccc1 (stereo not drawn) | active: 18.4 µM | –
72 | Cc1ccccc1CN1C(=O)c2ccccc2Sc2ccc(C(=O)NCCN3CCOCC3)cc21 | – | inactive: -28.7%
73 | CC/C(=C\c1oc2cc3ccccc3cc2[n+]1CC)Nc1ccccc1 | inconclusive [cytotoxic, single point] | –
